Measured values published in the supplement of paper PMC11876631.
Residue numbers refer to the chain shown, from its start. Names may count otherwise. ± gives the standard deviation of the averaged measurements. Laboratory Escherichia coli strains with one amino-acid change in an essential protein, pooled on minimal glucose agar with carbenicillin or gentamicin at twice the control MIC (plus kanamycin and chloramphenicol for the plasmids), 48 h. Fold change of barcode share against drug-free plates; higher = less susceptible. Active = above 20 in both replicates (the paper's putatively resistant). '<' = one read or none on drug, '>' = one read or none on a drug-free plate. Shares are relative, so most strains fall below 1 when a few take over. Listed are strains with at least 15 reads on both drug-free plates, and hits; most hits rest on fewer reference reads. Replicate rank correlation about 0.5. Edits are read from barcodes.

B1: ftsY I457A (protein)
chain: MAKEKKRGFFSWLGFGQKEQTPEKETEVQNEQPVVEEIVQAQEPVKASEQAVEEQPQAHTEAEAETFAADVVEVTEQVAESEKAQPEAEVVAQPEPVVEETPEPVAIEREELPLPEDVNAEAVSPEEWQAEAETVEIVEAAEEEAAKEEITDEELETALAAEAAEEAVMVVPPAEEEQPVEEIAQEQEKPTKEGFFARLKRSLLKTKENLGSGFISLFRGKKIDDDLFEELEEQLLIADVGVETTRKIITNLTEGASRKQLRDAEALYGLLKEEMGEILAKVDEPLNVEGKAPFVILMVGVNGVGKTTTIGKLARQFEQQGKSVMLAAGDTFRAAAVEQLQVWGQRNNIPVIAQHTGADSASVIFDAIQAAKARNIDVLIADTAGRLQNKSHLMEELKKIVRVMKKLDVEAPHEVMLTIDASTGQNAVSQAKLFHEAVGLTGITLTKLDGTAKGGVAFSVADQFGIPIRYIGVGERIEDLRPFKADDFIEALFARED
B2: ftsY I457W (protein)
chain: B1 chain with A457W
B3: ftsY I457Q (protein)
chain: B1 chain with A457Q
B4: ftsY I457P (protein)
chain: B1 chain with A457P
B5: ftsY M404A (protein)
chain: B1 chain with M404A, A457I
B6: ftsY M404Q (protein)
chain: B1 chain with M404Q, A457I
B7: ftsY M404D (protein)
chain: B1 chain with M404D, A457I
B8: ftsY M404P (protein)
chain: B1 chain with M404P, A457I
B9: argC I180A (protein)
chain: MLNTLIVGASGYAGAELVTYVNRHPHMNITALTVSAQSNDAGKLISDLHPQLKGIVDLPLQPMSDISEFSPGVDVVFLATAHEVSHDLAPQFLEAGCVVFDLSGAFRVNDATFYEKYYGFTHQYPELLEQAAYGLAEWCGNKLKEANLIAVPGCYPTAAQLALKPLIDADLLDLNQWPVANATSGVSGAGRKAAISNSFCEVSLQPYGVFTHRHQPEIATHLGADVIFTPHLGNFPRGILETITCRLKSGVTQAQVAQVLQQAYAHKPLVRLYDKGVPALKNVVGLPFCDIGFAVQGEHLIIVATEDNLLKGAAAQAVQCANIRFGYAETQSLI
B10: ftsY I364A (protein)
chain: B1 chain with I364A, A457I

Target: Escherichia coli (laboratory strain)
Assay: barcode share on antibiotic plates over drug-free plates; higher = less susceptible
Conditions: antibiotic: carbenicillin; 2× MIC (3.1 µg/mL)
Protocol: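 A pool of E. coli strains, each edited to carry one amino-acid change in an essential protein, was grown for 48 h on minimal glucose agar with or without antibiotic; strain barcodes were sequenced; mean of two replicates.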

For B1, which “fold change of barcode share” value is on record?
Its value is 0.448 ± 0.14.

With B2 as the protein, how does the “fold change of barcode share” value read?
The value was 0.302 ± 0.026.

How did the “fold change of barcode share” value turn out when B3 was run?
Its value is 0.376 ± 0.009.

Which “fold change of barcode share” value does the source give for B4 here?
The value was 0.329 ± 0.075.

B5 was tested. Which “fold change of barcode share” value did it give?
Its value is 0.25 ± 0.1.

How did the “fold change of barcode share” value turn out when B6 was run?
The value was 0.598 ± 0.43.

With B7 as the protein, how does the “fold change of barcode share” value read?
The value was 0.391 ± 0.13.

How did the “fold change of barcode share” value turn out when B8 was run?
Its value is 0.135 ± 0.043.

B9 was tested. Which “fold change of barcode share” value did it give?
Its value is 0.489 ± 0.13.

B10 was tested. Which “fold change of barcode share” value did it give?
The value was 0.263 ± 0.043.

Same assay, conditions: antibiotic: gentamicin; 2× MIC (MIC 0.45 µg/mL)

For B1, which “fold change of barcode share” value is on record?
The value was 0.0137 ± 0.0062.

Which “fold change of barcode share” value does the source give for B2 here?
Its value is 0.0137 ± 0.012.

Which “fold change of barcode share” value does the source give for B3 here?
The value was 0.0103 ± 0.0091.

Which “fold change of barcode share” value does the source give for B4 here?
The value was 0.00539 ± 0.0041.

Which “fold change of barcode share” value does the source give for B5 here?
Its value is 0.0095 ± 0.0052.

For B6, which “fold change of barcode share” value is on record?
The value was under 0.0145.

How did the “fold change of barcode share” value turn out when B7 was run?
Its value is 0.0892 ± 0.029.

With B8 as the protein, how does the “fold change of barcode share” value read?
The value was under 0.00865.

How did the “fold change of barcode share” value turn out when B9 was run?
The value was 0.00746 ± 0.00064.

Which “fold change of barcode share” value does the source give for B10 here?
The value was 0.341 ± 0.47.
